Measured values reported in article PMC4336329 (PLoS ONE, 2015).
Screen size: about 310,000 compounds; about 14,000 (4.5%) showed an effect of 50% or more. Effects have a minus sign here. The list shows a part of the results.

Target: human ether-à-go-go-related gene (hERG) potassium channel (human, UniProt Q12809)
Assay: primary screen, population patch clamp on CHO cells stably expressing hERG
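Also: peak tail current of the secondary pulse compared with the same well before compound.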

Chain of human ether-à-go-go-related gene (hERG) potassium channel (Q12809 whole entry, looked up): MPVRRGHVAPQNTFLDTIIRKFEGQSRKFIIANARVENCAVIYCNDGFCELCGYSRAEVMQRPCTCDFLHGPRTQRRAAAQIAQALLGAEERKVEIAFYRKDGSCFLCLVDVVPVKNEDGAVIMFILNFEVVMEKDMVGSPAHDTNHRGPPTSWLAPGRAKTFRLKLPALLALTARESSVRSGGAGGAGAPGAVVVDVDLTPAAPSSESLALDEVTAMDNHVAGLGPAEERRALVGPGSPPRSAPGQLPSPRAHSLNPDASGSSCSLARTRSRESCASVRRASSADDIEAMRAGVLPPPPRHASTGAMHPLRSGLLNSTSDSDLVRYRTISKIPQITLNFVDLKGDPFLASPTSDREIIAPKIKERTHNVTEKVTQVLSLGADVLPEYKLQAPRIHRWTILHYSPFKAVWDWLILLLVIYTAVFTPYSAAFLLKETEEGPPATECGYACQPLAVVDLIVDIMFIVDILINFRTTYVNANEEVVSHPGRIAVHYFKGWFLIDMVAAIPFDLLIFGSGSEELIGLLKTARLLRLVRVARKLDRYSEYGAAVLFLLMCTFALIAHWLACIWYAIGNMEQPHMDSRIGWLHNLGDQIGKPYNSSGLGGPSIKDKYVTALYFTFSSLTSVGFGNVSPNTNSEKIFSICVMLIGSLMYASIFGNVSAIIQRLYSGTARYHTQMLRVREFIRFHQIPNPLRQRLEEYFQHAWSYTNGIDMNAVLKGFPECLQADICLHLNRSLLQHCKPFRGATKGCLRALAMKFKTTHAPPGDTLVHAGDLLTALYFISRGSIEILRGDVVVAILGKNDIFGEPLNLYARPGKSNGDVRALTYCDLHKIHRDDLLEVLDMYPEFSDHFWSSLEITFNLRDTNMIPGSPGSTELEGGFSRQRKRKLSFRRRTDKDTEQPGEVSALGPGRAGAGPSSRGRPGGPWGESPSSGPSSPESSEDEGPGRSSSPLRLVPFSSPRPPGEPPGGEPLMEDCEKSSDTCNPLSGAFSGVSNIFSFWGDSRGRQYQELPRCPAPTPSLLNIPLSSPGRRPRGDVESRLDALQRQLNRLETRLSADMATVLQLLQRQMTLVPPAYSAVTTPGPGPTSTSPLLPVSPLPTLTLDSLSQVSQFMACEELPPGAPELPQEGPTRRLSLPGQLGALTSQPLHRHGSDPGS

| Structure (SMILES) | hERG current change (%, negative = inhibition) at 10uM [%] |
| --- | --- |
| CCOC(=O)C1(CCc2ccccc2)CCN(Cc2cccc3c2OCO3)CC1 | -75 |
| CC1(NC(=O)CSc2nnc(-c3ccco3)n2Cc2ccccc2)CCS(=O)(=O)C1 (centres unmarked) | -11.8 |
| C=CCn1c2ccccc2c2nnc(SCC(=O)Nc3cc(C)on3)nc21 | -8.39 |
| COc1ccccc1NC(=O)Cn1c(=O)sc2ccccc21 | -1.61 |
| CC1(C)N(O)CC(c2cccs2)=[N+]1[O-] | 4.5 |
| CC(=O)N(Cc1cc(=O)[nH]c2ccccc12)c1ccccc1 | 5.79 |
| CCOC(=O)[C@H]1[C@H]2COc3ccc(OC)cc3[C@@H]2N2C(=O)c3ccccc3NC(=O)[C@@]12C | 4.24 |
| Cc1ccc(CN2CCSc3ccc(C(=O)N4CCN(c5ncccn5)CC4)cc32)cc1 | 19 |
| CC(C)Cc1nnc(NC(=O)CCC(=O)NC2CCCCCC2)s1 | -48.6 |
| CCc1ccc(NC(=O)N(CCN(C)C)C(C)c2cccnc2)cc1 (centres unmarked) | -21.4 |
| CC1CCN(CC(=O)c2ccc3c(c2)OCCO3)CC1.O=C(O)C(=O)O | 10.2 |
| COc1ccc(CNc2oc(-c3cccc4ccccc34)nc2C#N)cc1 | 1.57 |
| CC1(c2ccccc2)NC(=O)N(CC(=O)Nc2cc(S(=O)(=O)N3CCOCC3)ccc2Cl)C1=O (centres unmarked) | -7.82 |
| Cc1nnc(SCc2ccc(CSc3nnc(C)c(=O)[nH]3)cc2)[nH]c1=O | 19.9 |
| O=C(NCCSc1c[nH]c2ccccc12)c1ccc(Br)o1 | -9.5 |
| Cc1cccc(Nc2ccncc2S(=O)(=O)NC(=O)NC(C)C)c1 | 2.65 |
| CCCCCc1cc(=O)oc2c(C(CCN3CCCC(C)C3)c3cc(OC)c(OC)c(OC)c3)c(OC)cc(OC)c12 (centres unmarked) | -64.4 |
| COC(=O)c1cccc(N=Cc2c(O)n(Cc3ccc(F)cc3)c(=O)[nH]c2=O)c1 | 10.6 |
| Cc1ccc(-c2cc(-c3nnc(SCC(=O)N(C)CCC#N)n3N)c3ccccc3n2)cc1 | -4.08 |
| Cc1ccc(CCC(=O)Nc2ccc(Br)cc2)o1 | 2.32 |
| Cc1ccc(Cl)c2c(N=Nc3ccccc3)c(O)[nH]c12 | 11.4 |
| COc1ccc(C(=O)NCc2nnc(SCC(=O)N3CCC(C)CC3)o2)cc1 | 16.8 |

| Structure (SMILES) | hERG current change (%, negative = inhibition) at 10uM [%] |
| --- | --- |
| O=S(=O)(/C=C/c1ccccc1)NC1CCCCCC1 | -16.5 |
| COc1ccc(C2=NOC(C(=O)Nc3ccc4c(c3)OCO4)C2)cc1 (centres unmarked) | 10.3 |
| Cc1c(NC(=O)c2cccs2)c(=O)n(-c2ccccc2)n1C | 3.8 |
| Cc1cc(Br)ccc1NC(=O)CNC(=O)CSc1n[nH]c(N)n1 | 18.5 |
| COc1ccc(Cc2nc(-c3ccccc3)no2)cc1 | 5.4 |
| CN(C)Cc1c(C(=O)N/N=C/c2ccncc2)nnn1-c1nonc1N | 3.67 |
| COC(=O)C1=C(O)/C(=C\c2cc(C)n(-c3ccccc3F)c2C)N=C1C | 14.9 |
| Cc1ccc(OCC(=O)N(Cc2ccccc2)c2c(N)n(Cc3ccccc3)c(=O)[nH]c2=O)c(C)c1 | 5.3 |
| CCOC(=O)Cn1cnc2c(nnn2-c2ccc(F)cc2)c1=O | 0.606 |
| COc1ccc(CNC(=O)CN(C)Cc2ccc(SC)cc2)cc1 | -65.2 |
| CCCNC(=S)Nc1ccccc1 | 20.3 |
| O=C(O)Cc1sc(NCc2ccco2)nc1-c1ccccc1 | -8.64 |
| Cc1cc(NC(=O)c2ccco2)c(=O)n(Cc2c(F)cccc2Cl)c1 | 3.91 |
| COc1ccc(-n2c(C)nc3sc4c(c3c2=O)CCCC4)cc1 | -20.3 |
| CCOc1ccc(NC(=O)COC(=O)CNC(=O)c2ccc(-c3ccccc3)cc2)cc1 | 2.3 |
| CC(C)NC(=O)COC(=O)c1ccc(NS(=O)(=O)c2ccc3c(c2)OCCO3)cc1 | -3.56 |
| CCn1c2ccccc2c2nnc(SCCCn3c(=O)[nH]c4ccccc43)nc21 | -5.22 |
| CCOC(=O)c1oc2ccccc2c1NC(=O)CN1CCN(C)CC1 | -58.4 |
| CSc1nnc2n(Cc3ccccc3)c(=O)c3c4c(sc3n12)COC(C(C)C)C4 (centres unmarked) | 2.83 |
| COc1cc(-c2cn(S(=O)(=O)c3cccc4nsnc34)nc2N)cc(OC)c1OC | -15.5 |
| C(=N\NC1=Nc2cccc3cccc1c23)/c1ccccc1 | 9.92 |
| O=C(Nc1ccccc1)N(Cc1ccc(Cl)cc1)CC(O)C(F)(F)F (centres unmarked) | 8.33 |
